The source of these data is patent US20220127372A1.

The chains are these.
B1: claudin18.2-SL-CD3ε (protein)
chain: QVQLQESGPGLIKPSQTLSLTCTVSGGSISSGYNWHWIRQPPGKGLEWIGYIHYTGSTNYNPALRSRVTISVDTSKNQFSLKLSSVTAADTAIYYCARIYNGNSFPYWGQGTTVTVSSGGGGSGGGGSGGGGSDIVMTQSPDSLAVSLGERATINCKSSQSLFNSGNQKNYLTWYQQKPGQPPKLLIYWASTRESGVPDRFSGSGSGTDFTLTISSLQAEDVAVYYCQNAYSFPYTFGGGTKLEIKRAAAGGGGSGGGGSGGGGSLE[sequence of about 200 residues omitted]
B2: claudin18.2-SL-CD3γ (protein)
chain: QVQLQESGPGLIKPSQTLSLTCTVSGGSISSGYNWHWIRQPPGKGLEWIGYIHYTGSTNYNPALRSRVTISVDTSKNQFSLKLSSVTAADTAIYYCARIYNGNSFPYWGQGTTVTVSSGGGGSGGGGSGGGGSDIVMTQSPDSLAVSLGERATINCKSSQSLFNSGNQKNYLTWYQQKPGQPPKLLIYWASTRESGVPDRFSGSGSGTDFTLTISSLQAEDVAVYYCQNAYSFPYTFGGGTKLEIKRAAAGGGGSGGGGSGGGGSLE[sequence of about 150 residues omitted]
B3: claudin18.2-LL-CD3ε (protein)
chain: QVQLQESGPGLIKPSQTLSLTCTVSGGSISSGYNWHWIRQPPGKGLEWIGYIHYTGSTNYNPALRSRVTISVDTSKNQFSLKLSSVTAADTAIYYCARIYNGNSFPYWGQGTTVTVSSGGGGSGGGGSGGGGSDIVMTQSPDSLAVSLGERATINCKSSQSLFNSGNQKNYLTWYQQKPGQPPKLLIYWASTRESGVPDRFSGSGSGTDFTLTISSLQAEDVAVYYCQNAYSFPYTFGGGTKLEIKRAAIEVMYPPPYLGGGGSGGGGSGGGGSLE[sequence of about 200 residues omitted]
B4: claudin18.2-LL-CD3γ (protein)
chain: QVQLQESGPGLIKPSQTLSLTCTVSGGSISSGYNWHWIRQPPGKGLEWIGYIHYTGSTNYNPALRSRVTISVDTSKNQFSLKLSSVTAADTAIYYCARIYNGNSFPYWGQGTTVTVSSGGGGSGGGGSGGGGSDIVMTQSPDSLAVSLGERATINCKSSQSLFNSGNQKNYLTWYQQKPGQPPKLLIYWASTRESGVPDRFSGSGSGTDFTLTISSLQAEDVAVYYCQNAYSFPYTFGGGTKLEIKRAAIEVMYPPPYLGGGGSGGGGSGGGGSLE[sequence of about 150 residues omitted]

The assay deals with human claudin 18.2 (human). Put plainly: cell-based or functional assay.
Sequence of human claudin 18.2 (human) (chain, as listed by the source limits assumed, form in doubt): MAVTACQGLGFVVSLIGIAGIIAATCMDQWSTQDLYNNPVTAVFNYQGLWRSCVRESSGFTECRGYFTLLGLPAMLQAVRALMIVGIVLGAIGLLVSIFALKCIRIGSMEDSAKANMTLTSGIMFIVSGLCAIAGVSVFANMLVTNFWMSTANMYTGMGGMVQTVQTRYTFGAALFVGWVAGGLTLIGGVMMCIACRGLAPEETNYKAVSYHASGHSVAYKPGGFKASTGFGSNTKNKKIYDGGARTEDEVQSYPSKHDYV
As to B1, the IFN-γ secretion after co-incubation with BxPC-3-Claudin18.2 cells, 1:1, 24 hours (CBA kit) worked out at 1870; the IFN-γ secretion after co-incubation with HGC27-Claudin18.2 cells, 1:1, 24 hours (CBA kit) was 1030; the IL-2 secretion after co-incubation with BxPC-3-Claudin18.2 cells, 1:1, 24 hours (CBA kit) amounted to 900; the IL-2 secretion after co-incubation with HGC27-Claudin18.2 cells, 1:1, 24 hours (CBA kit) was found to be 541. The TNF-α secretion after co-incubation with BxPC-3-Claudin18.2 cells, 1:1, 24 hours (CBA kit) was 83.1 and the TNF-α secretion after co-incubation with HGC27-Claudin18.2 cells, 1:1, 24 hours (CBA kit) came to 62.9.

As to B2, the IFN-γ secretion after co-incubation with BxPC-3-Claudin18.2 cells, 1:1, 24 hours (CBA kit) was 1460; the IFN-γ secretion after co-incubation with HGC27-Claudin18.2 cells, 1:1, 24 hours (CBA kit) stood at 762; the IL-2 secretion after co-incubation with BxPC-3-Claudin18.2 cells, 1:1, 24 hours (CBA kit) stood at 440; the IL-2 secretion after co-incubation with HGC27-Claudin18.2 cells, 1:1, 24 hours (CBA kit) was determined as 279. Also, the TNF-α secretion after co-incubation with BxPC-3-Claudin18.2 cells, 1:1, 24 hours (CBA kit) was 34.2 and the TNF-α secretion after co-incubation with HGC27-Claudin18.2 cells, 1:1, 24 hours (CBA kit) stood at 45.1.

For B3, the IFN-γ secretion after co-incubation with BxPC-3-Claudin18.2 cells, 1:1, 24 hours (CBA kit) came to 2030; the IFN-γ secretion after co-incubation with HGC27-Claudin18.2 cells, 1:1, 24 hours (CBA kit) was 1180; the IL-2 secretion after co-incubation with BxPC-3-Claudin18.2 cells, 1:1, 24 hours (CBA kit) was determined as 886; the IL-2 secretion after co-incubation with HGC27-Claudin18.2 cells, 1:1, 24 hours (CBA kit) came to 532. The TNF-α secretion after co-incubation with BxPC-3-Claudin18.2 cells, 1:1, 24 hours (CBA kit) was 118 and the TNF-α secretion after co-incubation with HGC27-Claudin18.2 cells, 1:1, 24 hours (CBA kit) amounted to 107.

Take B4: the IFN-γ secretion after co-incubation with BxPC-3-Claudin18.2 cells, 1:1, 24 hours (CBA kit) is 813; the IFN-γ secretion after co-incubation with HGC27-Claudin18.2 cells, 1:1, 24 hours (CBA kit) was determined as 349; the IL-2 secretion after co-incubation with BxPC-3-Claudin18.2 cells, 1:1, 24 hours (CBA kit) is 117; the IL-2 secretion after co-incubation with HGC27-Claudin18.2 cells, 1:1, 24 hours (CBA kit) was 27.7. For the same molecule, the TNF-α secretion after co-incubation with BxPC-3-Claudin18.2 cells, 1:1, 24 hours (CBA kit) was found to be 13.2 and the TNF-α secretion after co-incubation with HGC27-Claudin18.2 cells, 1:1, 24 hours (CBA kit) turned out to be 13.8.
